PubChem BioAssay AID720708 (National Center for Advancing Translational Sciences (NCATS), 2013)
Out of some 360,000 compounds screened, about 660 (0.18%) were called active. The shares of active, inactive and inconclusive entries below differ from those in the screen. The call rests on the fitted dose curve; in most records, active means well fitted inhibition curve with a large enough effect; inconclusive means small, poorly fitted or top-dose-only effect; inactive means no such curve, though single readings can be large or run the other way. No potency is given beside an inconclusive call; the fits are too rough.
Further: nearly all actives have a fitted effect of over 45% in size.
Potency means the concentration at half of the fitted maximal effect; tags describe the fitted curve by direction and shape.

These molecules were tested against Rap guanine nucleotide exchange factor 4 (Homo sapiens) (UniProt Q8WZA2) (assay: qHTS for Antagonist of cAMP-regulated guanine nucleotide exchange factor 2 (EPAC2): primary screen). Settings: EPAC2 GEF exchange of Rap1B-BODIPY-GDP, fluorescence; series mostly up to 114 µM.
UniProt Q8WZA2, sequence (Q8WZA2 whole entry, looked up): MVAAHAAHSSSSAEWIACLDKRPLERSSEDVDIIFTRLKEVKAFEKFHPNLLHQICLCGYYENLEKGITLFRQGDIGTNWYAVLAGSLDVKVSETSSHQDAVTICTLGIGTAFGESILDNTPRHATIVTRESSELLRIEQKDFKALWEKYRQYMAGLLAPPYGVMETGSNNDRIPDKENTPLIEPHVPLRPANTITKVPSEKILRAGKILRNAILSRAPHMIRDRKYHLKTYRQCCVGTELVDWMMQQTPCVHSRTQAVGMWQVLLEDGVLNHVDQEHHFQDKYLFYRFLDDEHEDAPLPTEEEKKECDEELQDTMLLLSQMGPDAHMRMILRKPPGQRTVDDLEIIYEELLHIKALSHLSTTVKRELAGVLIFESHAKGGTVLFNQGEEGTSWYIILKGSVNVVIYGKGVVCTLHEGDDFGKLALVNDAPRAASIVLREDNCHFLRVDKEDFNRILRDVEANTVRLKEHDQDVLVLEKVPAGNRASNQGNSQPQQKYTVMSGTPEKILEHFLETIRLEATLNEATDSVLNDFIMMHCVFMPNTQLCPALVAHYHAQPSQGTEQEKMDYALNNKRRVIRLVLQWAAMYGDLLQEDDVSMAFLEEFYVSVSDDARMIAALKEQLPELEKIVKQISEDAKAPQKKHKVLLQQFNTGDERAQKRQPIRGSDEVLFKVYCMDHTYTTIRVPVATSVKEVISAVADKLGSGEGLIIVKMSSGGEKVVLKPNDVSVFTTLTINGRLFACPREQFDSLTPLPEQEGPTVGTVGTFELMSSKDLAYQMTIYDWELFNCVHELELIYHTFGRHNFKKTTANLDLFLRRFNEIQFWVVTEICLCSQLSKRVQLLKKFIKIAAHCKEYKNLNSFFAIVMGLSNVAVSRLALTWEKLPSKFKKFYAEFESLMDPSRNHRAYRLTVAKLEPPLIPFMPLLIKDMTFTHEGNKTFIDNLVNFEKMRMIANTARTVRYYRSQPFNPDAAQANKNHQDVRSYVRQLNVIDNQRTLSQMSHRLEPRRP
With `COc1ccc(C(=O)NC(=S)Nc2ccc(S(=O)(=O)Nc3cc(OC)nc(OC)n3)cc2)cc1` the Potency was “inactive”. In the case of `CC(C)CN(C(=O)COC(=O)CSc1ccccc1)c1c(N)n(Cc2ccccc2)c(=O)[nH]c1=O`, the Potency is reported as “inactive”. For `CC1(C)Cc2ccccc2-c2nnc(-c3ccc4ccccc4n3)n21`, the Potency was inconclusive [inhibitor, single point]. In the case of `COc1ccc(C)cc1NC(=O)c1cc(S(=O)(=O)N2CCCCC2)ccc1N1CCOCC1`, the Potency is reported as “inactive”. For `CCOCCCNc1nc2c(C)cccn2c(=O)c1/C=C1\SC(=S)N(C(C)CC)C1=O` (stereo not drawn), the Potency was inconclusive [inhibitor, single point]. `CCCCCCCCN1C(=O)[C@H](CC(=O)NCCCN2CCCC2=O)C[C@@]2(C(=O)OC)CC(C)(C)CC=C12` was tested, and the Potency was inconclusive [inhibitor, partial curve]. With `CC1=CC(C)(C)n2c(O)c(N=N)c3c(C)c(C)cc1c32` the Potency was inconclusive [inhibitor, partial curve]. `CCC(Oc1ccccc1)C(=O)Nc1ccccc1N1CCCCC1` (stereo not drawn) was tested, and the Potency was active: 12.6 µM. In the case of `Cc1ccc(C)c(N2CCN(CCCNC(=O)Cn3cccc3C(=O)c3ccccc3C)CC2)c1`, the Potency is reported as inconclusive [inhibitor, single point]. `COC(=O)N1CCc2c(sc(NC(=O)C3COc4ccccc4O3)c2C(N)=O)C1` (stereo not drawn) was tested, and the Potency was “inactive”. In the case of `Nc1cccc2cc(S(=O)(=O)O)ccc12`, the Potency is reported as “inactive”. `CCOC(=O)N1CCN(CC(=O)Nc2nc3ccc(OC)cc3s2)CC1` was tested, and the Potency was “inactive”. For `CCOc1ccc(S(=O)(=O)NCc2cccs2)cc1C(C)C`, the Potency was inconclusive [inhibitor, partial curve]. In the case of `O=C(COc1ccccc1[N+](=O)[O-])Nc1ccccc1N1CCCC1`, the Potency is reported as inconclusive [inhibitor, full curve, poor fit]. With `COc1ccc(NC(=O)[C@H](C)NC(=O)C2CCN(S(=O)(=O)c3ccc(C)cc3)CC2)cc1` the Potency was “inactive”. In the case of `CCCCc1c(-c2cccc(OC)c2)ncn1CCc1ccccc1OC`, the Potency is reported as inconclusive [inhibitor, full curve]. In the case of `Cc1ccc(S(=O)(=O)Nc2ccc(F)c(F)c2O)cc1`, the Potency is reported as inconclusive [inhibitor, partial curve]. `c1ccc(C2=Nn3c(Cn4nnc5ccccc54)nnc3SC2)cc1` was tested, and the Potency was “inactive”. For `CCCn1nc(NS(=O)(=O)c2cccc3nonc23)c2cc3cccc(C)c3nc21`, the Potency was inconclusive [inhibitor, partial curve]. For `Cn1c(N)c(C(=O)COC(=O)CCCOc2ccc(Cl)cc2Cl)c(=O)n(C)c1=O`, the Potency was inconclusive [inhibitor, full curve]. `Cc1ccc(P(=O)(CSC(=N)N)c2ccc(C)cc2)cc1` was tested, and the Potency was inconclusive [inhibitor, full curve]. In the case of `CCN(CC)c1ccc(/C=C2\C(=O)c3ccc(C(=O)O)cc3C2=O)cc1`, the Potency is reported as inconclusive [inhibitor, single point]. `COc1cc(NC(=O)COc2ccc(C)c(C)c2)ccc1NC(=O)c1ccco1` was tested, and the Potency was inconclusive [inhibitor, single point]. `CC[n+]1ccc(/C=C/c2c[nH]c3ccccc23)cc1` was tested, and the Potency was “inactive”. `COC(=O)c1cc(C)nc2c1c(C)nn2-c1ccccc1` was tested, and the Potency was inconclusive [inhibitor, partial curve]. `COc1ccc(CCNC(=O)CSCc2c(F)cccc2Cl)cc1OC` was tested, and the Potency was inconclusive [inhibitor, full curve, poor fit]. With `O=C(NNc1cc(N2CCOCC2)nc(N2CCOCC2)n1)c1ccc([N+](=O)[O-])cc1` the Potency was inconclusive [inhibitor, single point]. For `COC(=O)c1ccccc1NC(=O)CN(C)Cc1ccccc1`, the Potency was inconclusive [inhibitor, partial curve]. With `CC1CCN(c2ccccc2NC(=S)NC(=O)C(C)(C)C)CC1` the Potency was inconclusive [inhibitor, single point]. In the case of `CC(C)c1ccc(NC2=NCC(=O)N2Cc2cccs2)cc1`, the Potency is reported as inconclusive [inhibitor, partial curve, poor fit]. With `CCCCOc1ccc(C(=O)NCC(=O)NCCCn2nc(C)cc2C)cc1` the Potency was “inactive”. In the case of `CCc1c(C)sc(NC(=S)Nc2nc(C)cc(C)n2)c1C(=O)OC`, the Potency is reported as “inactive”. `Cc1ccccc1S(=O)(=O)Cc1ccc(C(=O)NC2CC2)o1` was tested, and the Potency was inconclusive [inhibitor, single point]. `O=C(N/N=C/c1cc([N+](=O)[O-])cc([N+](=O)[O-])c1O)C(O)(c1ccccc1)c1ccccc1` was tested, and the Potency was inconclusive [inhibitor, full curve, poor fit]. `COC1=C(c2ccccc2)C(=O)c2ccccc2C1=O` was tested, and the Potency was “inactive”. For `O=C(Cc1c(Sc2ccccc2)c2ccccc2n1Cc1ccccc1)NCCO`, the Potency was inconclusive [inhibitor, full curve]. With `CCOc1ccc(N=C2C(=O)Nc3ccc(C)c(Br)c32)cc1` the Potency was inconclusive [inhibitor, partial curve]. For `CCCCn1c(N)c(N(CCC(C)C)C(=O)C2CC(=O)N(c3ccc4c(c3)OCCO4)C2)c(=O)[nH]c1=O` (stereo not drawn), the Potency was “inactive”. In the case of `O=C(COc1ccc2c(-c3ccccc3)cc(=O)oc2c1)NCC1CCC(C(=O)O)CC1` (stereo not drawn), the Potency is reported as inconclusive [inhibitor, partial curve]. In the case of `CC1(C)CC2(OC2c2ccccc2[N+](=O)[O-])C(=O)c2ccccc21` (stereo not drawn), the Potency is reported as inconclusive [inhibitor, full curve, poor fit]. In the case of `O=c1ccc(-c2ccccc2)nn1Cc1ccc(F)cc1Cl`, the Potency is reported as inconclusive [inhibitor, partial curve]. For `O=C(OCC(=O)N1CCC(c2ccccc2)=N1)c1ccc([N+](=O)[O-])s1`, the Potency was inconclusive [inhibitor, single point]. In the case of `CCOC(=O)C(NC(=O)c1cccc(Cl)c1)(OCc1ccc(F)cc1)C(F)(F)F` (stereo not drawn), the Potency is reported as inconclusive [inhibitor, partial curve].
